Measured values reported in paper PMC4336329 (PLoS ONE, 2015).
The campaign covered roughly 310,000 compounds. About 2,200 (0.71%) showed an effect of 50% or more. The effect is printed as a negative number. This is one part of the list.

Biological target: human ether-à-go-go-related gene (hERG) potassium channel (human, UniProt Q12809)
Test: primary screen, population patch clamp on CHO cells stably expressing hERG

Sequence of human ether-à-go-go-related gene (hERG) potassium channel (Q12809 whole entry, looked up): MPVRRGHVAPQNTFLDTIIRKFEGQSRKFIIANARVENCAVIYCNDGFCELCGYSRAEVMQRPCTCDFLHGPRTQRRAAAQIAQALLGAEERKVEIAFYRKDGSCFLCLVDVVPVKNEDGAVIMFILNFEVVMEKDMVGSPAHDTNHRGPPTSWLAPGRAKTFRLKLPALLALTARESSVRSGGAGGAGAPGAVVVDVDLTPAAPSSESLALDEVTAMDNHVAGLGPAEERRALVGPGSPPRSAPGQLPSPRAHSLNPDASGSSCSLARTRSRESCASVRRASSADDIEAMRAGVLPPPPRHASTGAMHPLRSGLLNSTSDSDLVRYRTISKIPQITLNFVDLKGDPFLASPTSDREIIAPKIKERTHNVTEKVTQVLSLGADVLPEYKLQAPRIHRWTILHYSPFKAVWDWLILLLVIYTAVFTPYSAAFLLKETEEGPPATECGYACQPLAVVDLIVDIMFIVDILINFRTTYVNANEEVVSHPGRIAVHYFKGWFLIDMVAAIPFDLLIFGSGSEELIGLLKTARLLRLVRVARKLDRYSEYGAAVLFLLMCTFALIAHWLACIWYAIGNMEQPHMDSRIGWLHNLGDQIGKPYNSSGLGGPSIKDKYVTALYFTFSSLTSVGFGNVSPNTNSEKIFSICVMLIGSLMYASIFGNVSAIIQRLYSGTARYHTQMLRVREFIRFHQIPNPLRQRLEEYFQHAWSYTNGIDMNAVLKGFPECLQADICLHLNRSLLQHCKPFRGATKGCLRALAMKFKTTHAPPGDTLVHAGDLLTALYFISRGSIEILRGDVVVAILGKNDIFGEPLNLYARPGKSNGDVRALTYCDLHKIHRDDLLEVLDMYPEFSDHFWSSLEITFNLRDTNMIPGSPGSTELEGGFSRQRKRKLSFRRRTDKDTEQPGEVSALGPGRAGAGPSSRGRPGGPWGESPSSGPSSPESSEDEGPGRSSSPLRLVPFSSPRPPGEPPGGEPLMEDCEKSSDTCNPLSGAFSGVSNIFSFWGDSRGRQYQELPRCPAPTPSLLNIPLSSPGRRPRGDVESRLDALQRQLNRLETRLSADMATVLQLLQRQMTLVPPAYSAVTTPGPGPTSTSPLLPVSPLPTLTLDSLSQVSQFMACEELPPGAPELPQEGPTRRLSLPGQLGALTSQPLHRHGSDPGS

| Structure (SMILES) | hERG current change (%, negative = inhibition) at 1uM [%] |
| --- | --- |
| c1coc(-c2nn3c(-c4ccco4)nnc3s2)c1 | -0.125 |
| CCN1CCN(S(=O)(=O)c2ccc(Cl)c(C(=O)NC(C)(C)C)c2)CC1 | -7.39 |
| COc1ccc(C(c2oc(CO)cc(=O)c2O)c2oc(CO)cc(=O)c2O)cc1 | 12.7 |
| CCN(CC)CCNC(=O)c1ccc(NS(=O)(=O)c2ccc3c(c2)OCCO3)cc1 | 16.1 |
| CCCCOc1ccc(C(=O)Nc2ccc(CN3CCOCC3)cc2)cc1 | 14.3 |
| COC(=O)Cc1c(C)c2c(OCc3nn[nH]n3)cc(C)cc2oc1=O | 10.5 |
| CCCCOC(=O)Nc1ccc(S(=O)(=O)Nc2ncccn2)cc1 | 6.56 |
| Cc1[nH]c(-c2ccc3c(c2)OCO3)nc1C(=O)O | 14.2 |
| Cc1ccc(SCC(=O)NCCCN2CCOCC2)cc1 | 16.4 |
| O=C(COc1ccc2ccccc2c1)NCCn1ccc2ccccc21 | 7.11 |
| O=c1[nH]c(=O)n(-c2cccc(Cl)c2)c(O)c1C=NCCCN1CCOCC1 | 5.7 |
| O=C(NCc1ccccn1)C1CC(c2ccccc2Cl)=NO1 (centres unmarked) | 13.8 |
| CCn1c(C)c(C)c2cc(C(=O)NCCc3ccco3)ccc21 | 18.4 |
| Cc1ccc(NC(=O)N(C2CCCCC2)C(C)c2cccnc2)cc1C (centres unmarked) | 9.74 |
| Cn1c(COc2ccc(Cl)cc2)nnc1SCC(=O)NC1CCCC1 | -4.17 |
| Cc1sc2nc(CN(CCc3ccccc3)C(=O)c3ccco3)[nH]c(=O)c2c1C | 11 |
| CCc1cc(CNC(=O)c2ccc(OC)c(OC3CCN(C(C)C)CC3)c2)on1 | 3.29 |
| O=c1cc(Cn2ccnc2)c2cc3c(cc2o1)CCC3 | 6.99 |
| CCOC(=O)c1c(C)c(C(=O)N2CCN(C(=O)c3ccco3)CC2)c(C)n1C | -5.61 |
| CCCCC(=O)Nc1cccc(C(=O)Nc2ccccc2C(=O)O)c1 | 15.1 |
| CCNC(=O)CC1C(=O)N(CC)C(=S)N1NC(=O)c1ccc(Cl)cc1 (centres unmarked) | -17.5 |
| CCC(=O)N1CCc2cc(Br)cc(S(=O)(=O)N3CCC(C(=O)NC(C)C)CC3)c21 | 8.18 |

| Structure (SMILES) | hERG current change (%, negative = inhibition) at 1uM [%] |
| --- | --- |
| CN(C)S(=O)(=O)c1ccc(C(=O)Nc2ccc(F)cc2F)cc1 | 3.99 |
| O=C(O)C1CC=CCC1C(=O)Nc1ccccc1C(=O)N1CCN(c2ccc(F)cc2)CC1 (centres unmarked) | 2.36 |
| COc1ccccc1OCCNC(=O)C1CC(=O)N(c2cccc(SC)c2)C1 (centres unmarked) | -4.5 |
| O=C(O)Cc1ccc(NC(=O)c2ccc3c(c2)C(=O)N(CC2CCCO2)C3=O)cc1 (centres unmarked) | 7.26 |
| O=C1c2ccccc2C(=O)c2c1ccc(C(=O)N1CCCCC1)c2NCCO | -11.5 |
| O=C1CCc2cc(S(=O)(=O)N3CCN(c4ccc(F)cc4)CC3)cc3c2N1CC3 | 5.09 |
| COc1ccc(C(=O)c2ccc(OC)c(N)c2)cc1N | 1.51 |
| COc1cc2c(cc1OC)CN(c1ccc([N+](=O)[O-])cc1C#N)CC2 | -7.03 |
| Cc1ccc(CNS(=O)(=O)c2c(C)nc3scc(C)n3c2=O)cc1 | 11 |
| CC(Cc1ccccc1Sc1ccc(O)cc1)N(C)C.CCO.Cl (centres unmarked) | -73.1 |
| CCC(=O)NC(c1ccc(OC)cc1)c1c(O)ccc2ccccc12 (centres unmarked) | -7.87 |
| COc1ccc(OC)c(N2C(=O)CC(Cc3ccc(Cl)cc3)C2=O)c1 (centres unmarked) | 6.7 |
| S=C1CCC(c2ccc(Cl)cc2)=NN1c1ccccc1 | 11.9 |
| Cc1[nH]c2c(Cl)cccc2c(=O)c1CN1CCCC1 | 5.95 |
| O=c1c2cc(NC(=S)NCCN3CCCCCC3)ccc2nc2n1CCCCC2 | 7.57 |
| O=C(NC(=S)Nc1cccc2cccnc12)c1cccs1 | 8.03 |
| S=c1[nH]ncn1/N=C/c1ccc(N2CCOCC2)cc1 | 18.8 |
| Cc1ccc(C)c2[nH]c(=O)c(CCNC(=O)c3ccc(Br)o3)cc12 | 7.83 |
| Cc1ccc(CNC(=O)CSc2ccc(-c3ccco3)nn2)cc1 | -1.64 |
| CC(NC(=O)Cc1cccs1)C(c1cccs1)N1CCN(c2ccccc2)CC1 (centres unmarked) | 3.53 |
| Cc1ccc2nc(SC(C)C(=O)NC3CCCc4ccccc43)[nH]c2c1 (centres unmarked) | 11.6 |
| CC(OC(=O)c1cc(S(=O)(=O)N(C)c2ccccc2)ccc1Cl)C(=O)Nc1ccc2c(c1)OCCO2 (centres unmarked) | 12.6 |
